{"source": "PubChem BioAssay AID624418", "about": "(National Center for Advancing Translational Sciences (NCATS), 2012)", "note": "The campaign covered roughly 410,000 compounds. About 530 (0.13%) were called active. The call rests on the fitted dose curve; in most records, active means well fitted inhibition curve with a large enough effect; inconclusive means small, poorly fitted or top-dose-only effect, or another doubt; inactive means no such curve, though single readings can be large or run the other way. Inconclusive means that the source gave no clear call. Potencies of inconclusive entries are doubtful fits and often do not repeat. Potency means the concentration at half of the fitted maximal effect.", "data": [{"assay": "qHTS of GLP-1 Receptor Inverse Agonists: Cytotox Screen", "settings": "HEK293 cAMP-luciferase reporter cells, luminescence, 24 h; series mostly up to 38.3 µM", "excerpt": "The overall goal of this project was to develop a novel assay for discovering small molecule ligands for class B1 G protein-coupled receptors (GPCRs). Very few agonists (or inverse agonists) with generally weak activity for this entire group of physiologically important receptors are known to date. To establish proof-of-principle that this critical bottleneck can be overcome with a suitable screening approach, our studies focused on the class B1 receptor for glucagon-like peptide-1 (GLP-1R), a potential therapeutic target for diabetes and neurodegenerative disease.\nThe assay was developed using a cell-based functional readout. Toward this goal, stably transfected HEK293 cell clones were established that co-express (i) a cAMP-responsive luciferase reporter gene, and (ii) constitutively active GLP-1R that upon ligand interaction inhibit (inverse agonists) the luciferase activity. […]\nSix ul of cell suspension (200 cells/uL in DMEM + 10% Nu serum + 1% pen-strep) is dispensed in a white solid 1536-well plate. […] A luminescence read is obtained on the PerkinElmer Viewlux after 12 min incubation at room temperature.", "values": [{"smiles": "COC(=O)c1sc(-c2ccc(C(C)(C)C)cc2)cc1NC(=O)COCC(=O)O", "Potency": "inconclusive: 28.2 µM [inhibitor, single point]"}, {"smiles": "Cc1cc(C)cc(-n2cccc2/C=C2/C(=N)N3C(=NC2=O)SN=C3S(C)(=O)=O)c1", "Potency": "inconclusive: 7.94 µM [inhibitor, partial curve]"}]}]}
